# Test results published in a collection of fitness landscapes (doi:10.1126/science.1257360).
# This is one part of the list.
# B1: PhoQ; a variant is named by its letters at X, in order, P23837 (parent)
# chain: MKKLLRLFFPLSLRVRFLLATAAVVLVLSLAYGMVALIGYSVSFDKTTFRLLRGESNLFYTLAKWENNKLHVELPENIDKQSPTMTLIYDENGQLLWAQRDVPWLMKMIQPDWLKSNGFHEIEADVNDTSLLLSGDHSIQQQLQEVREDDDDAEMTHSVAVNVYPATSRMPKLTIVVVDTIPVELKSSYMVWSWFIYVLSANLLLVIPLLWVAAWWSLRPIEALAKEVRELEEHNRELLNPATTRELTSLVRNLNRLLKSERERYDKYRTTLTDLTHSLKTPLXXLQXXLRSLRSEKMSVSDAEPVMLEQISRISQQIGYYLHRASMRGGTLLSRELHPVAPLLDNLTSALNKVYQRKGVNISLDISPEISFVGEQNDFVEVMGNVLDNACKYCLEFVEISARQTDEHLYIVVEDDGPGIPLSKREVIFDRGQRVDTLRPGQGVGLAVAREITEQYEGKIVAGESMLGGARMEVIFGRQHSAPKDE
# Variants of: B1
# Assay: enrichment ratio after two sorts for PhoP signalling (ratio (wild type AVST 3.29)); higher = more functional
# Details: with PhoP (E. coli)
row,Variant,enrichment ratio
1,RCKQ,≤ 0.25
2,VCEP,≤ 0.25
3,NQRI,≤ 0.25
4,KAWY,≤ 0.25
5,SYSH,≤ 0.25
6,YKGF,≤ 0.25
7,DKDM,≤ 0.25
8,CFVP,≤ 0.25
9,TMNL,5.04
10,MCYM,14.1
11,VWEY,≤ 0.25
12,IFDI,≤ 0.25
13,MMVR,≤ 0.25
14,RYMC,≤ 0.25
15,LKDN,≤ 0.25
16,GAKM,≤ 0.25
17,LNRH,≤ 0.25
18,MPTD,≤ 0.25
19,SMKI,≤ 0.25
20,ADLN,6.6
21,MFQE,≤ 0.25
22,SPDR,≤ 0.25
23,SEFR,≤ 0.25
24,TMKT,≤ 0.25

row,Variant,enrichment ratio
1,LATR,≤ 0.25
2,MIPP,0.84
3,FKQQ,≤ 0.25
4,WSGR,≤ 0.25
5,HIHL,≤ 0.25
6,WILI,≤ 0.25
7,QTDV,7.98
8,INYN,≤ 0.25
9,LPHN,≤ 0.25
10,ANKR,≤ 0.25
11,YDWK,≤ 0.25
12,LNLS,≤ 0.25
13,AFTQ,≤ 0.25
14,QMLS,≤ 0.25
15,GNQF,≤ 0.25
16,NIKC,≤ 0.25
17,DATM,≤ 0.25
18,DICG,≤ 0.25
19,APML,≤ 0.25
20,QRVI,≤ 0.25
21,TVHG,0.311
22,MEHP,≤ 0.25
23,VYGP,≤ 0.25
24,EFQK,≤ 0.25

row,Variant,enrichment ratio
1,PVEI,≤ 0.25
2,LLVG,≤ 0.25
3,LNKR,≤ 0.25
4,FNTQ,≤ 0.25
5,FYCW,≤ 0.25
6,LKPQ,≤ 0.25
7,WFSR,≤ 0.25
8,IQGL,≤ 0.25
9,VCHS,≤ 0.25
10,PEQY,≤ 0.25
11,QENE,≤ 0.25
12,EGDI,≤ 0.25
13,RQML,≤ 0.25
14,VYQA,≤ 0.25
15,PGWK,≤ 0.25
16,RGPW,≤ 0.25
17,RKGY,≤ 0.25
18,LNMY,≤ 0.25
19,NNCT,≤ 0.25
20,KFGC,≤ 0.25
21,AFRQ,≤ 0.25
22,FSTT,≤ 0.25
23,ASLA,14.6
24,QWLY,≤ 0.25

row,Variant,enrichment ratio
1,RDMY,≤ 0.25
2,WAVR,≤ 0.25
3,SLMI,10.3
4,RNEL,≤ 0.25
5,TKAY,8.06
6,IMFH,≤ 0.25
7,FMNL,≤ 0.25
8,IRMK,≤ 0.25
9,CSFS,≤ 0.25
10,DQHI,≤ 0.25
11,WMCH,≤ 0.25
12,LKNY,≤ 0.25
13,NIRT,≤ 0.25
14,EVCC,≤ 0.25
15,MMCE,≤ 0.25
16,LWHI,≤ 0.25
17,KEYR,≤ 0.25
18,MFNM,≤ 0.25
19,QYQL,≤ 0.25
20,DKTD,≤ 0.25
21,YMCH,0.253
22,RVIR,≤ 0.25
23,LDPC,≤ 0.25
24,NGFI,≤ 0.25

row,Variant,enrichment ratio
1,TQKN,≤ 0.25
2,HPDT,≤ 0.25
3,RIWN,≤ 0.25
4,KKRR,≤ 0.25
5,THPW,≤ 0.25
6,IRHP,≤ 0.25
7,HTIP,≤ 0.25
8,GCGW,≤ 0.25
9,RKLD,≤ 0.25
10,PDEM,≤ 0.25
11,FHTT,≤ 0.25
12,HFRL,≤ 0.25
13,YFAV,≤ 0.25
14,PKDL,≤ 0.25
15,HKNT,≤ 0.25
16,TVEP,≤ 0.25
17,FALV,7.53
18,PVDL,≤ 0.25
19,LPLN,≤ 0.25
20,GMHQ,≤ 0.25
21,YLYF,≤ 0.25
22,KARN,≤ 0.25
23,IHTP,≤ 0.25
24,FEEP,≤ 0.25

row,Variant,enrichment ratio
1,NTRC,2.86
2,DGML,≤ 0.25
3,VLYG,≤ 0.25
4,SHLS,0.38
5,YQSG,≤ 0.25
6,KVNV,≤ 0.25
7,EVNF,≤ 0.25
8,PWKS,≤ 0.25
9,QEFL,2.95
10,EYKK,≤ 0.25
11,PWRS,≤ 0.25
12,YPNP,≤ 0.25
13,GDFE,≤ 0.25
14,LLPF,≤ 0.25
15,MNIP,≤ 0.25
16,KRWF,≤ 0.25
17,MCMW,≤ 0.25
18,YKFL,≤ 0.25
19,HHRT,≤ 0.25
20,TNFI,≤ 0.25
21,HSSK,≤ 0.25
22,IGNI,≤ 0.25
23,KMVS,≤ 0.25
24,NWRI,≤ 0.25

row,Variant,enrichment ratio
1,EIET,≤ 0.25
2,MTMF,8.2
3,TLYK,≤ 0.25
4,TIIP,≤ 0.25
5,VEWQ,≤ 0.25
6,SAWR,≤ 0.25
7,MQSW,≤ 0.25
8,THSH,12.3
9,SPCD,≤ 0.25
10,MEEA,≤ 0.25
11,AAFY,≤ 0.25
12,HWMY,≤ 0.25
13,KYEF,≤ 0.25
14,LIRH,≤ 0.25
15,GWAD,≤ 0.25
16,SRNV,≤ 0.25
17,ISCF,≤ 0.25
18,VDYK,≤ 0.25
19,AGYH,0.299
20,MADY,≤ 0.25
21,DEFF,≤ 0.25
22,YCIP,≤ 0.25
23,RGFN,≤ 0.25
24,PKMI,≤ 0.25

row,Variant,enrichment ratio
1,AWFA,≤ 0.25
2,MIYC,≤ 0.25
3,SCMS,6.76
4,VVNM,≤ 0.25
5,HPFY,≤ 0.25
6,PRAT,≤ 0.25
7,WICH,≤ 0.25
8,ICGM,≤ 0.25
9,MGYS,12.2
10,IFVK,≤ 0.25
11,AHMG,≤ 0.25
12,ILDP,≤ 0.25
13,SSTS,10.2
14,WWAI,≤ 0.25
15,MLIW,≤ 0.25
16,AHLG,6.95
17,WWQM,≤ 0.25
18,THSI,5.98
19,ARPS,≤ 0.25
20,FYGN,≤ 0.25
21,LECW,≤ 0.25
22,NFNN,≤ 0.25
23,MARK,≤ 0.25
24,QIAY,≤ 0.25

row,Variant,enrichment ratio
1,PIMM,≤ 0.25
2,TQAV,7.36
3,EHLS,≤ 0.25
4,SMAR,3.77
5,PTES,≤ 0.25
6,EMTH,≤ 0.25
7,MNRY,≤ 0.25
8,LSQG,≤ 0.25
9,PEGF,≤ 0.25
10,AWCG,≤ 0.25
11,VYQL,≤ 0.25
12,CYLL,≤ 0.25
13,TQSV,20.7
14,RHYS,≤ 0.25
15,TWGK,≤ 0.25
16,YAKM,≤ 0.25
17,EYNA,≤ 0.25
18,QDCH,≤ 0.25
19,SCGY,8.61
20,WQHS,≤ 0.25
21,RLCS,≤ 0.25
22,PEGD,≤ 0.25
23,WIKC,≤ 0.25
24,FDNH,≤ 0.25

row,Variant,enrichment ratio
1,NYRG,≤ 0.25
2,KNHM,≤ 0.25
3,FSHF,≤ 0.25
4,PSKR,≤ 0.25
5,GNLT,16.5
6,QFVV,≤ 0.25
7,GTSE,≤ 0.25
8,PGHI,≤ 0.25
9,TISL,19.4
10,TLRY,≤ 0.25
11,FCCM,≤ 0.25
12,FADY,≤ 0.25
13,HLYR,≤ 0.25
14,LWES,≤ 0.25
15,NWTS,≤ 0.25
16,LMCL,≤ 0.25
17,VQPQ,≤ 0.25
18,RGLQ,≤ 0.25
19,DQPQ,≤ 0.25
20,AGHW,≤ 0.25
21,VDCG,≤ 0.25
22,QRAF,≤ 0.25
23,DNQI,22.9
24,LNNG,≤ 0.25

row,Variant,enrichment ratio
1,QYAS,≤ 0.25
2,DFFH,≤ 0.25
3,IACA,≤ 0.25
4,NHKH,≤ 0.25
5,PVDG,≤ 0.25
6,KRCY,0.665
7,MWDL,≤ 0.25
8,DEDK,≤ 0.25
9,RNCT,≤ 0.25
10,LSYM,7.26
11,AYYD,≤ 0.25
12,SHVH,4.7
13,GEIQ,≤ 0.25
14,IKDH,≤ 0.25
15,TFLR,0.372
16,DFPL,≤ 0.25
17,WEQL,≤ 0.25
18,QMML,≤ 0.25
19,TFWH,≤ 0.25
20,TAAS,10.8
21,SCEW,≤ 0.25
22,KYRA,≤ 0.25
23,DNMR,≤ 0.25
24,CIVQ,≤ 0.25

row,Variant,enrichment ratio
1,NERA,≤ 0.25
2,DECM,≤ 0.25
3,YCKA,≤ 0.25
4,LLRY,≤ 0.25
5,RNWM,≤ 0.25
6,IVSQ,≤ 0.25
7,YWTA,≤ 0.25
8,WPPY,≤ 0.25
9,EGSH,≤ 0.25
10,TQKR,≤ 0.25
11,YEVG,≤ 0.25
12,EILD,≤ 0.25
13,CAYT,≤ 0.25
14,NMMY,≤ 0.25
15,EFAI,≤ 0.25
16,YAAQ,≤ 0.25
17,YYVK,≤ 0.25
18,MQPR,≤ 0.25
19,FEHS,≤ 0.25
20,PWVN,≤ 0.25
21,LYPP,≤ 0.25
22,PLVQ,≤ 0.25
23,LMAH,≤ 0.25
24,IGVM,≤ 0.25

row,Variant,enrichment ratio
1,IIIF,≤ 0.25
2,EEKF,≤ 0.25
3,VEHP,≤ 0.25
4,RNTW,≤ 0.25
5,TDVF,0.978
6,MRPT,≤ 0.25
7,PCRR,≤ 0.25
8,SRAK,≤ 0.25
9,WSIQ,≤ 0.25
10,YWQP,≤ 0.25
11,LIRA,≤ 0.25
12,MGIP,≤ 0.25
13,GCGY,≤ 0.25
14,VQRC,≤ 0.25
15,MRFV,≤ 0.25
16,TLVY,≤ 0.25
17,LWAC,≤ 0.25
18,QRTV,≤ 0.25
